Laboratory results as given in PubChem BioAssay AID1346428 (National Center for Advancing Translational Sciences (NCATS), 2018).
Where “and” joins values, the source holds several entries; their conditions need not be identical. Equal values may be shown once. The campaign covered roughly 48,000 compounds. About 1,200 (2.5%) were called active. Roughly 2% stayed inconclusive and do not appear here.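 The calls were made as follows: active = activation of at least 60% and not above a set upper limit (about 1 call in 100 departs from these limits); inconclusive = activation of 40% to 60%, or above that upper limit; inactive = activation under 40%.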 This is one part of the list.

target: Probable G-protein coupled receptor 32 (Homo sapiens) (UniProt O75388); experiment: qHTS for Agonists of Human Resolvin D1 Receptor DRV1; details: CHO-K1 GPR32 beta-arrestin PathHunter luminescence, 90 min; at 76.9 µM; active compounds read high; zero percent set by DMSO-only wells; also: 0% is about no effect
Outline: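 CHO-K1 cells stably expressing ProLink-tagged GPR32 and Enzyme Activator-tagged beta-arrestin were seeded at 2,500 cells/well overnight, exposed to compounds for 90 min at 37 °C, then read by beta-Gal complementation chemiluminescence after 1 h detection reagent.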

UniProt O75388, sequence (O75388 whole entry, looked up): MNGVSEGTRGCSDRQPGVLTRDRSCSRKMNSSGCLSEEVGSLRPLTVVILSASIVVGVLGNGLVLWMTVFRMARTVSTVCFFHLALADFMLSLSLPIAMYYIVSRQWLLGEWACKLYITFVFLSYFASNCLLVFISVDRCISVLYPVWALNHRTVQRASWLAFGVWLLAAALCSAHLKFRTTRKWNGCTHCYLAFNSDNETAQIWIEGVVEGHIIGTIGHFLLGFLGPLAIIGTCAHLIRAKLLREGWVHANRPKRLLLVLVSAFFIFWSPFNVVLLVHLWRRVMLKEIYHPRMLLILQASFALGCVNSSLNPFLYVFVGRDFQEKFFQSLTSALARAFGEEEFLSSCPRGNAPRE

activation, active:
Cc1nc(-c2cccc(F)c2)sc1CCNC(=O)c1ccc(F)c(F)c1 62.6%, Cc1ccc2nc(NS(=O)(=O)c3ccc(Cl)cc3)c(Nc3ccc(C(=O)O)cc3)nc2c1 83.2%

activation, inactive:
Cc1ccccc1CNC(=O)c1sc2ncnc(N(C)C3CCCCC3)c2c1C -6.58%, O=S(=O)(c1ccc2[nH]c3c(c2c1)CCCCC3)N1CCN(c2cccc(Cl)c2)CC1 3.38%, Cc1cccc(NC(=O)c2sc(-n3nc(C)c(CCC(C)C)c3C)nc2C)c1C -8.8%, OCc1cccnc1 11.5%, CCc1ccc(NS(=O)(=O)c2ccc(C(=O)N(C)C)s2)cc1 22.9%, O=C(C1CC1)N1CCc2cc(Br)cc(S(=O)(=O)N3CCN(c4ccccc4)CC3)c21 -6.37%, Cn1c(=O)c2sccc2n2c(CCC(=O)N3CCN(c4cccc(Cl)c4)CC3)nnc12 12.3%, CCCCOC(=O)c1ccc(Nc2nc3ccccc3c3nnc(C)n23)cc1 -0.316%, CCCCC(=O)Nc1nnc(S(=O)(=O)N(CC)c2cc(C)cc(C)c2)s1 -9.29%, Cc1c(CNCCc2ccc(S(N)(=O)=O)cc2)c(C(=O)O)c(C)n1Cc1ccc(Cl)cc1 1.27%, CCOc1ccc(/C=C(\C#N)C(=O)Nc2sc3c(c2C(=O)OC)C(C(=O)OC)CC3)cc1OC (centres undefined) -5.34%, CN(C(=O)CSc1nc2ccccc2n1CC(=O)N(C)c1ccc(F)cc1)c1ccccc1 12.8%, CCc1ccccc1NC(=O)Cn1nnc(C(=O)NCc2cccs2)c1N 12.6%, COc1cc(NC(=O)c2cc(-c3ccc(Cl)c(Cl)c3)on2)cc(OC)c1OC 19.5%, COc1ccc(CNCCSc2nnnn2-c2ccccc2)c(OC)c1 -5.29%, O=C(CSc1nccn1Cc1ccc(F)cc1)Nc1ccc2c(c1)OCO2 -13.8%, Cc1ccc(CNC(=O)CN2C(=O)C3(SCC(=O)N3c3cc(C)cc(C)c3)c3ccccc32)cc1 (centres undefined) -19.6%, COc1ccc(N2CCN(C(=O)C3CCN(S(=O)(=O)Cc4ccccc4)CC3)CC2)cc1 -0.871%, CCOc1ccc(Nc2oc(-c3ccc(COc4ccccc4C)o3)nc2C#N)cc1 -16.9%, CCN(c1ccccc1)S(=O)(=O)c1ccc(F)c(C(=O)Nc2ccc(C)cc2)c1 -8.69%, COc1cccc(C2C(C(=O)Nc3ccccc3)=C(C)Nc3nnnn32)c1OC (centres undefined) -6.45%, N[C@H](C(=O)O)[C@@H](O)c1ccc(O)c(O)c1 4.51%, COc1cc2c(-c3ccc(C)cc3)nc3c(c(C)nn3-c3ccccc3)c2cc1OC -2.68%, CCc1ccccc1NC(=O)C1COc2ccccc2C1 (centres undefined) -18.9%, Cn1cnc(S(=O)(=O)N2CCC(C(=O)N3CCN(c4ccc(Cl)cc4)CC3)CC2)c1 -4.79%, N#C/C(=C\c1ccccc1)C(=O)Nc1sc2c(c1C(N)=O)CCC2 -13.2%, CC(C)Oc1ccc(CNC(=O)c2cnc3sc(N4CCCCC4)nn3c2=O)cc1 -2.25%, CC(=O)Nc1ccc(-n2c(CCC(=O)O)ccc2-c2ccc(C)cc2)cc1 -8.55%, CCOC(=O)c1oc2ccc(S(=O)(=O)n3nc(-c4cc(OC)cc(OC)c4)cc3N)cc2c1C -9.56%, Cc1cc(C)cc(OCC(=O)Nc2ccc(Cl)c(-c3nc4ncccc4o3)c2)c1 22.4%, N#Cc1ccc(OC(=O)c2cc(-c3ccc4c(c3)OCCO4)on2)cc1 -15.7%, CCc1ccc(Sc2cc(C(=O)NCCCOC(C)C)c3ccccc3n2)cc1 29.8%, CCCn1c(=O)c2sccc2n2c(CCCC(=O)N3CCN(c4cccc(C)c4C)CC3)nnc12 -2.22%, Cc1ccc(NC(=O)CSc2nc3c(oc4ccccc43)c(=O)n2Cc2ccco2)cc1 -20.7%, CC(=O)N(Cc1cccnc1)c1nc2c(C)cccc2s1 -16%, Cn1cc(-c2cc3n(n2)CCC(=O)N3CCCC(=O)Nc2ccc(F)cc2F)c2ccccc21 -3.39%, Cc1cc(C)cc(-n2ccnc2SCC(=O)Nc2ccc3c(c2)OCO3)c1 -11.9%, Cc1cc2nc(-c3ccc(Br)cc3)cc(C(F)(F)F)n2n1 -1.13%, COc1ccc(CCn2c(=O)c3cccnc3n(CC(=O)Nc3cccc(C)c3)c2=O)cc1OC -8.09%, CCOC(=O)C1CCN(C(=O)Cn2nc(C)n3c(cc4cc(C)ccc43)c2=O)CC1 -0.509%, COc1ccc(S(=O)(=O)NCc2ccc3c(c2)CCN3C(=O)c2ccc(C)cc2)cc1Cl -22.8%, Cc1nc2c(C(=O)NCCc3ccc(Cl)cc3)c[nH]n2c(=O)c1Cc1ccccc1F 24.1%, CCc1ccc(-c2cn3c(n2)sc2cc(C(=O)NCC(C)c4ccccc4)ccc23)cc1 (centres undefined) -11.9%, Cc1nnc2c(N3CCN(c4ccccc4)CC3)nc3ccc(C(=O)c4ccccc4)cc3n12 -1.01%, CCc1ccc(N2CCn3c2nc2c3c(=O)n(Cc3c(F)cccc3Cl)c(=O)n2C)cc1 -3.21%, CCOC(=O)c1ccc(NC(=O)CCS(=O)(=O)c2ccc3c(c2)oc(=O)n3C)cc1 -20.7%, CCCCCn1c(=O)[nH]c2cc(C(=O)NCc3ccc(OC)cc3)ccc2c1=O -5.52%, CCCC(=O)O[C@]1(C(=O)CCl)[C@@H](C)C[C@H]2[C@@H]3CCC4=CC(=O)C=C[C@]4(C)[C@@]3(F)C(=O)C[C@@]21C -21.2%, COc1ccc(C2NC(=O)c3c(sc4c3CCN(C)C4)N2)cc1O (centres undefined) -29.9%, CCN(CCCNC(=O)c1cc2c(=O)[nH]c3ccc(C)cc3c2s1)c1ccc(C)cc1 -32.6%, CCc1ccc(NC(=O)C(CC)n2nnc(C(=O)OC)c2C(=O)OC)cc1 (centres undefined) 24.7%, CCOc1ccc(-n2nc3cc(C)c(NC(=O)CC)cc3n2)cc1 1.59%, COc1ccccc1N(CC(=O)Nc1ccccc1F)S(C)(=O)=O -3.32%, CCCCN(CCCC)CCNC(=O)CN1C(=O)CSc2ccc(S(=O)(=O)N3CCCCC3)cc21 -18.1%, Cc1cccc(CN2C(=O)CC(c3ccc(Cl)cc3)c3c(C)nn(-c4nc(C)cc(C)n4)c32)c1 (centres undefined) -27%, COc1ccccc1NC(=O)CN1C(=O)c2cccc3cccc1c23 31.9%, Cc1cccc(N2CCN(C(=O)C3CCN(S(=O)(=O)c4cn(C)cn4)CC3)CC2)c1C -1.25%, Cc1ccc(Cl)cc1N1CCN(S(=O)(=O)c2ccc3[nH]c4c(c3c2)CCCC4)CC1 0.461%, CCOc1ccc2ccccc2c1C(=O)N[C@@H]1C(=O)N2[C@@H]1SC(C)(C)[C@@H]2C(=O)O -3%, Cc1ccc(NC(=O)N2CCN(c3nnc(C)c4c(C)n(-c5ccccc5)nc34)CC2)cc1Cl -12.6%, Cc1ccc(Cl)cc1Nc1nn2c(=O)c3ccc(C(=O)NCc4cccs4)cc3nc2s1 29.3%, COc1ccccc1NC(=O)C1CCN(S(=O)(=O)c2ccc3c(c2)oc(=O)n3C)CC1 13.7%, CCCN1C(=O)c2ccccc2CC1(C)C(=O)NC1CCCCC1 (centres undefined) -4.86%, CCOCCCn1c(SCC(=O)Nc2cccc(OC)c2)nc2ccccc2c1=O -20.3%, CN(C)C/C=C(/c1ccc(Br)cc1)c1cccnc1 -1.08% and -20.2%, CCOc1ccccc1CNC(=O)c1cnc2sc(N3CCCC3)nn2c1=O -11.9%, CCC(CO)Nc1ncnc2c1cnn2-c1ccc(C)cc1 (centres undefined) 14.8%, O=C(NCc1ccc2c(c1)OCO2)c1ccc2c(c1)N(Cc1ccc(F)cc1)C(=O)c1ccccc1S2=O (centres undefined) -11.9%, CCOCCc1nn2c(=O)cc(COC(=O)c3cccs3)nc2s1 -2.25%, Cc1ccc2nc(N(Cc3cccnc3)C(=O)c3ccc4c(c3)OCCO4)sc2c1 0.361%, CCN(c1ccc(Cl)cc1)S(=O)(=O)c1nnc(NC(=O)C2CCCCC2)s1 -13.4%, COc1ccccc1-c1ccnc2[nH]n(-c3ccccc3)c(=O)c12 -42.9%, COc1ccc(Cn2ccnc2SCC(=O)NCc2ccccc2)cc1 -11.6%, CCC1CCCCN1C(=O)c1nn(-c2ccc(C)cc2)c(=O)c2c1c1ccccc1n2C (centres undefined) 31.5%, CCOc1ccc(CCNC(=O)c2cnc3sc(N4CCOCC4)nn3c2=O)cc1 -3.02%, CCOc1ccc(C2C(=O)N(C3CCCCCC3)CC(=O)N2CCc2ccccc2)cc1OC (centres undefined) -29.9%, Cc1ccc(C)c(S(=O)(=O)NCC(c2ccco2)S(=O)(=O)c2ccc(F)cc2)c1 (centres undefined) -10.9%, NCCCNCCCCNCCCN -2.24%, CCOc1ccc(C(=O)Nc2ccc(S(=O)(=O)N3CCCCC3c3cccnc3)cc2)cc1 (centres undefined) 11.4%, Cc1cccc(N2CCN(c3nc4ccccc4c(=O)n3-c3ccc(Cl)cc3)CC2)c1C -17.9%, CCc1cccc(C)c1NC(=O)Cn1c(=O)cc(C(F)(F)F)c2c(C)nn(C)c21 14.8%, Cc1noc(C)c1S(=O)(=O)N(CC(=O)NCc1ccccc1Cl)c1ccc(C(C)C)cc1 -9.61%
